{
  "source": "paper PMC12747267",
  "about": "(bioRxiv, 2025)",
  "proteins": {"B1": {"name": "human nonmuscle myosin-2B (NM2B) heavy chain (natural protein)", "chain": "not shown"}},
  "molecular_target": "the molecule itself",
  "assay": "cryo-EM structure",
  "data": [
    {"protein": "B1", "values": [
      {"measurement": "binding result", "result": "binds"}
    ]}
  ]
}
